Laboratory results from PubChem BioAssay AID652104 (National Center for Advancing Translational Sciences (NCATS), 2013).
About 7,200 (1.8%) of roughly 410,000 compounds were called active. Inconclusive means that the source gave no clear call. Such entries were picked first, then a sample of the others. The call rests on the fitted dose curve; in most records, active means well fitted activation curve with a large enough effect; inconclusive means small, poorly fitted or top-dose-only effect, or another doubt; inactive means no such curve, though single readings can be large or run the other way. No potency is given beside an inconclusive call; the fits are too rough.

Test: qHTS of TDP-43 Inhibitors; further: nearly all actives have a fitted effect of over 50% in size; on growth rescue (activation): % of control where 0% means no effect
Details: TDP-43 expressing yeast growth rescue, BacTiter-Glo, 24 h; growth rescue (activation): at 46.1 µM (top of the series)
From the text: The goal of this project is to identify new chemical probes capable of reversing the toxicity associated with TDP-43 which is associated with frontotemporal lobar degeneration and amyotrophic lateral sclerosis. These compounds will provide a complementary approach to deciphering the tangled mechanisms of toxicity and protection that we have uncovered through genome-wide genetic screens and are beginning to uncover in a large-scale proteomics analysis with mass spectroscopy.
To this end, a miniaturized assay was developed to be screened against the Molecular Libraries Small Molecule Repository (MLSMR) to discover TDP-43 inhibitors. Please note that in the set-up this yeast-based assay compounds that inhibit as TDP-43, have a read-out as activators.
NIH Chemical Genomics Center [NCGC]
NIH Molecular Libraries Probe Centers Network [MLPCN]
Assay Submitter (PI): Susan Lindquist, Whitehead Institute/MIT
Dispense 2.5 microL yeast galactose medium per 1536-well plate, pin compound, dispense 2.5 microL TDP-43 expressing yeast in galactose medium at OD600=0.02 (pregrown in raffinose medium to mid-log phase) per well, incubate for 24 hr at 30 deg C, and cell growth will be measured using 5 microL of Bactiter/Glo reagent to entire plate and read using Luminescence Protocol in ViewLux.
Potency means the concentration at half of the fitted maximal effect; tags describe the fitted curve by direction and shape.

| SMILES | Potency | growth rescue (activation) |
| --- | --- | --- |
| CCC(=NCc1ccc(F)cc1)c1c(O)n(C)c(=O)n(C)c1=O | inconclusive [activator, partial curve, poor fit] | – |
| COc1ccc(CCNC(=O)N2c3ccccc3Sc3ccccc32)cc1 | inconclusive [activator, single point] | – |
| COC(=O)C1=C(c2ccc(OC(F)(F)F)cc2)C[C@@H]2CC[C@H]1N2C(=O)NCCc1ccccc1 | inconclusive [activator, single point] | – |
| CN1CCN(c2ccc([N+](=O)[O-])c3no[n+]([O-])c23)CC1 | inactive | – |
| COC(=O)C1=C(c2cc3ccccc3o2)C[C@@H]2CC[C@H]1N2C(=O)NCc1ccccc1 | inconclusive [activator, partial curve] | – |
| CC(C)Oc1cc(-n2c(=S)[nH]c3ccccc3c2=O)c(Cl)cc1Cl | active: 10 µM | – |
| CCOC(=O)c1c(C)n(Cc2ccccc2)c2ccc(OCC(O)Cn3nc(C)cc3C)cc12 (configuration not stated) | inconclusive [activator, single point] | – |
| CCN(CC)C(=O)Oc1ccc2cc(Br)ccc2c1 | inconclusive [activator, full curve, poor fit] | – |
| Cc1ccccc1NC(=O)Oc1cccc(OC(=O)c2ccccc2)c1 | inconclusive [activator, partial curve] | – |
| CCOc1ccc(-c2nc(CSCC(=O)NCCc3ccc(OCC)c(OCC)c3)c(C)o2)cc1 | inconclusive [activator, single point] | – |
| O=S(=O)(Nc1ccc(-c2nc3ccccc3o2)cc1)c1ccccc1 | active: 14.1 µM | – |
| CCn1nc(/C=C/c2ccccc2)nc2c(=O)n(C)c(=O)nc1-2 | active: 3.16 µM | – |
| C/C(=N\N1CCCCCC1)c1c(O)n(-c2ccc(C)cc2)c(=O)[nH]c1=O | inconclusive [activator, single point] | – |
| O=[N+]([O-])c1ccc2c(c1)Cc1cc(O)ccc1-2 | active: 3.55 µM | – |
| C=CCNc1nnc(Sc2ncccc2[N+](=O)[O-])s1 | inconclusive [activator, full curve, poor fit] | – |
| CCOC(=O)c1c(NC(=O)c2c(N)n(CCCOC)c3nc4ccccc4nc23)sc2c1CCCC2 | inactive | – |
| CC1(C)C(=O)C=C[C@]2(C)[C@H]3CC[C@@]4(C)[C@H](c5ccoc5)OC(=O)[C@H]5O[C@]54[C@]3(C)[C@H](O)C[C@@H]12 | inconclusive [activator, partial curve] | – |
| CC(=NCCc1ccccc1)c1c(O)n(C)c(=O)n(C)c1=O | inconclusive [activator, single point] | – |
| COC(=O)C1=C(c2ccc(OCc3ccccc3)cc2)C[C@@H]2CC[C@H]1N2C(=O)NCc1cccc(OC)c1 | inconclusive [activator, full curve, poor fit] | – |
| c1ccc(CCc2ccc3n2Cc2cnnn2-c2ccccc2-3)cc1 | inconclusive [activator, single point] | – |
| Cc1cccc(-n2c(O)c(C=Nc3ccccc3N)c(=O)[nH]c2=O)c1 | inconclusive [activator, single point] | – |

| SMILES | Potency | growth rescue (activation) |
| --- | --- | --- |
| CCOC(=O)c1c(-n2c(C)cc(C=C3C(=O)NC(=S)NC3=O)c2C)sc2c1CCCC2 | active: 17.8 µM | – |
| CCOc1ccccc1-n1c(O)c(C=NCc2ccc3c(c2)OCO3)c(=O)[nH]c1=O | inactive | – |
| COc1ccc(-n2c(/C=C\c3ccccc3F)nc3ccccc3c2=O)c(OC)c1 | active: 35.5 µM | – |
| N#Cc1cc2c(nc1SCC(=O)Nc1ccc(C(F)(F)F)cc1)C1CCN2CC1 | inactive | – |
| COc1ccc(Cn2c(O)c(/C=N/NC(=O)c3ccccc3)c(=O)[nH]c2=O)cc1 | inactive | – |
| CC1CCC(C)(NS(=O)(=O)OCC(Cl)(Cl)Cl)CC1 (configuration not stated) | active: 17.8 µM | – |
| CC(=NCc1cccnc1)c1c(O)n(Cc2ccccc2)c(=O)[nH]c1=O | inactive | – |
| CC(=O)NC(Cc1ccc(N(CCCl)CCCl)cc1)C(=O)O (configuration not stated) | inactive | – |
| c1ccc(Nc2ccc3ccccc3c2)cc1 | inconclusive [activator, full curve, poor fit] | – |
| Cc1ccc(C(O)P(=O)(Oc2ccccc2)Oc2ccccc2)cc1 (configuration not stated) | inconclusive [activator, single point] | – |
| C/C=C/C(=O)OCC(=O)Nc1ccc(OC)c(Cl)c1 | inconclusive [activator, single point] | – |
| COc1cccc(N2C(=O)/C(=C/c3ccc(C)o3)C(=O)NC2=S)c1 | inconclusive [activator, single point] | – |
| Oc1cc(Cl)c(Cl)c(Cl)c1Cl | – | inconclusive: -93% [activator] |
| Cc1ccccc1-c1ccc2c(c1)C1c3c(-c4ccccc4)nnn3-c3ccccc3C(=O)N1CC2 (configuration not stated) | inconclusive [activator, single point] | – |
| C=C1C(=O)OC2CC3(C)OC3CCC(C)=CC(OC(C)=O)C12 (configuration not stated) | inconclusive [activator, full curve] | – |
| C=C(CC1CC(O)[C@]2(C)OC3CC4OC5C[C@]6(C)O[C@]7(C)CCC8OC9C[C@]%10(C)OC%11C(C)=CC(=O)OC%11CC%10OC9C[C@@H](C)C8OC7CC6O[C@]5(C)C/C=C\C4OC3CC2O1)C(=O)O (some centres not stated) | inconclusive [activator, single point] | – |
| CC1(C(=O)O)CCCC2(C)c3cc(O)ccc3CCC12 (configuration not stated) | inactive | – |
| CC12CCC3C(CCC4CC(=O)CCC43C)C1CC(=NO)C2=O (configuration not stated) | active: 15.8 µM | – |
| O=C(c1cc2c(s1)-c1ccccc1OC2)N1CCC2(CC1)OCCO2 | inconclusive [activator, single point] | – |
| COc1ccc(C(C)=O)cc1Cc1c(O)[nH]c(=S)[nH]c1=O | inconclusive [activator, full curve, poor fit] | – |
| CC1(C)CN(S(=O)(=O)OCC(Cl)(Cl)Cl)C(=O)N1 | inconclusive [activator, full curve, poor fit] | – |
